{"source": "the BET-seq Pho4 binding data (Le et al. 2018)", "note": "This is one part of the list. These are noisy estimates, calculated here from bound and input reads.", "data": [{"biological_target": "T1, Pho4 (S. cerevisiae) (UniProt P07270)", "T1 sequence": "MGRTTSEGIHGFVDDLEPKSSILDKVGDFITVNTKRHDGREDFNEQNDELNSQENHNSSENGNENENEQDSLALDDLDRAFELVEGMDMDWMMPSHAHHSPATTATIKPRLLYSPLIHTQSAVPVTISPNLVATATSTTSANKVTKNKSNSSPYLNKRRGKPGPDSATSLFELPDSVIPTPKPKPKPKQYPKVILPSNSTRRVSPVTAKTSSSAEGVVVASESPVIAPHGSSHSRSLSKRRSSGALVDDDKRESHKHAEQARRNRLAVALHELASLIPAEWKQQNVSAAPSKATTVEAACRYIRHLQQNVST", "experiment": "relative binding free energy (BET-seq); higher = weaker binding", "conditions": "reference: library average", "units": {"relative binding free energy": "kcal/mol"}, "values": [{"sequence": "TGTGCCACGTGGGGCC", "relative binding free energy": -0.32}, {"sequence": "GCGAGCACGTGGTTGG", "relative binding free energy": -0.03}, {"sequence": "GTAGTCACGTGGACGT", "relative binding free energy": 0.1}, {"sequence": "GGCTTCACGTGAGGAT", "relative binding free energy": 0.35}, {"sequence": "AGAGGCACGTGGCATT", "relative binding free energy": -0.14}, {"sequence": "TTATGCACGTGCGCGG", "relative binding free energy": -0.16}, {"sequence": "GGTCACACGTGAGGTA", "relative binding free energy": 0.5}, {"sequence": "GGTAGCACGTGGCTGT", "relative binding free energy": -0.18}, {"sequence": "TCGGGCACGTGCGGAG", "relative binding free energy": -0.19}, {"sequence": "GGGCTCACGTGGTTAT", "relative binding free energy": 0.23}, {"sequence": "GTCTACACGTGGAGGG", "relative binding free energy": 0.09}, {"sequence": "TACGGCACGTGGGGTA", "relative binding free energy": -0.2}, {"sequence": "TGGTGCACGTGATATT", "relative binding free energy": 0.03}, {"sequence": "TTGAGCACGTGTGAAT", "relative binding free energy": 0.05}, {"sequence": "TGGGCCACGTGGTGTC", "relative binding free energy": -0.21}, {"sequence": "GTTTGCACGTGCCTGG", "relative binding free energy": 0.04}, {"sequence": "AGGGACACGTGGATTT", "relative binding free energy": -0.01}, {"sequence": "GGCAACACGTGGGGTG", "relative binding free energy": -0.12}, {"sequence": "GTTCACACGTGGCGTG", "relative binding free energy": -0.01}, {"sequence": "GTATTCACGTGCTTGT", "relative binding free energy": 0.24}, {"sequence": "GGCGTCACGTGCGGGA", "relative binding free energy": 0.02}, {"sequence": "TAATGCACGTGCTGAG", "relative binding free energy": 0.09}, {"sequence": "GTAGCCACGTGAGGTG", "relative binding free energy": 0.07}, {"sequence": "CGTTACACGTGTTGCG", "relative binding free energy": 0.07}, {"sequence": "GACGTCACGTGGGGCT", "relative binding free energy": -0.02}, {"sequence": "TCGAACACGTGGTTGT", "relative binding free energy": -0.08}, {"sequence": "TGATGCACGTGGTGTT", "relative binding free energy": 0.01}, {"sequence": "TAACGCACGTGGGAGT", "relative binding free energy": -0.26}, {"sequence": "TTGTTCACGTGTACAG", "relative binding free energy": 0.21}, {"sequence": "ATTTTCACGTGGTAGC", "relative binding free energy": 0.22}, {"sequence": "TTTACCACGTGGGGAT", "relative binding free energy": -0.13}, {"sequence": "GGCCTCACGTGGATGG", "relative binding free energy": 0.24}, {"sequence": "ATGGTCACGTGCCGTA", "relative binding free energy": 0.06}, {"sequence": "GGTGTCACGTGAGTGA", "relative binding free energy": 0.25}, {"sequence": "GGTAACACGTGGTGAA", "relative binding free energy": 0.15}, {"sequence": "TTTGGCACGTGGTCAT", "relative binding free energy": -0.26}, {"sequence": "TAATGCACGTGGAGTG", "relative binding free energy": -0.09}, {"sequence": "GTACCCACGTGGGGTG", "relative binding free energy": -0.19}, {"sequence": "GCGCGCACGTGCGGGG", "relative binding free energy": -0.22}, {"sequence": "ACTTACACGTGGGGTT", "relative binding free energy": 0}, {"sequence": "GGAAACACGTGCGGTG", "relative binding free energy": 0.07}, {"sequence": "TGGGGCACGTGGTCAG", "relative binding free energy": -0.08}, {"sequence": "TGATACACGTGGCTGT", "relative binding free energy": -0.14}, {"sequence": "AAAGACACGTGGTGTA", "relative binding free energy": -0.16}, {"sequence": "GTCTTCACGTGCTTGT", "relative binding free energy": 0.3}, {"sequence": "GGTTACACGTGGTGAA", "relative binding free energy": 0.03}, {"sequence": "TGATACACGTGTGCTA", "relative binding free energy": 0.05}, {"sequence": "AGGTACACGTGAGTCG", "relative binding free energy": 0.26}, {"sequence": "GAAGGCACGTGATTGG", "relative binding free energy": -0.03}, {"sequence": "TTTGACACGTGCGCTG", "relative binding free energy": -0.05}, {"sequence": "TGTTTCACGTGCCGTG", "relative binding free energy": 0.06}]}]}
